# Inconclusive results, whose numbers are uncertain, are shown with a selection of clear calls. For part of these data: No potency is given beside an inconclusive call; the fits are too rough. Active and inactive are the calls of the source. Unless noted, calls follow the shape of the dose curve; as a rule, active = well fitted curve in the direction sought with a large enough effect in the repeat runs; inconclusive = weak or mixed curves; inactive = no such curve, though single readings can be large; an effect the other way counts as inactive or inconclusive.
# What was measured:
# [1] = qHTS assay for small molecule agonists of the antioxidant response element (ARE) signaling pathway (AID 743202; active = well fitted activation curve with a large enough effect in the signal ratio in the repeat runs, not every such curve was filed as active; inconclusive = weak or mixed curves, or effect the other way; inactive = no such curve, though single readings can be large or run the other way; the % refers to the signal ratio; also: potency is read from the fitted curve at half-maximal effect; as to activation: % is scaled to controls: 0 for no effect and ±100 for the full control effect); details: HepG2 ARE-bla reporter, beta-lactamase FRET, 16 h; activation: at 73.3 µM (top of the series) unless noted
# How it was run: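 Following a 16 h, 37 C exposure of reporter HepG2 cells (ARE-driven beta-lactamase, 2,000 cells/well) to compounds, FRET substrate was applied for 2 h at room temperature and fluorescence intensity recorded.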
# [2] = qHTS assay to identify small molecule agonists of the farnesoid-X-receptor (FXR) signaling pathway - cell viability counter screen (AID 743218); details: FXR-bla HEK293T viability, CellTiter-Glo luminescence, 16 h; viability change, negative = cytotoxic: at 62.6 µM (top of the series) unless noted; also: nearly all actives have a fitted effect of over 45% in size; also: potency is read from the fitted curve at half-maximal effect
# How it was run: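 Same-well cytotoxicity check on FXR-UAS-bla HEK 293T cells: 5 h attachment, 16 h compound at 37 C, CellTiter-Glo luminescence read at room temperature after 30 min.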
# [3] = qHTS assay to identify small molecule antagonists of the farnesoid-X-receptor (FXR) signaling pathway - cell viability counter screen (AID 743221; active = well fitted cell-killing curve with a large enough effect in the repeat runs, not every such curve was filed as active; inconclusive = weak or mixed curves, or effect the other way; inactive = no such curve, though single readings can be large or run the other way; also: potency is read from the fitted curve at half-maximal effect; nearly all actives have a fitted effect of over 50% in size); details: FXR-bla HEK293T viability, CellTiter-Glo luminescence, 16 h; activity change, negative = cytotoxicity: at 62.6 µM (top of the series) unless noted
# How it was run: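 In GeneBLAzer FXR-UAS-bla HEK 293T cells stimulated with 50 uM chenodeoxycholic acid (final), compounds acted for 16 h at 37 C. Viability was assessed afterwards by CellTiter-Glo luminescence.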
# [4] = biological target: Nuclear receptor ROR-gamma (Homo sapiens) (UniProt P51449); experiment: qHTS assay to identify small molecule antagonists of the retinoid-related orphan receptor gamma (ROR-gamma) signaling pathway (AID 1159521; also: nearly all actives have a fitted effect of over 50% in size; also: potency is read from the fitted curve at half-maximal effect;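 as to activity change, negative = inhibition: CHO cells with doxycycline inducible ROR-gamma driving an RORE luciferase reporter; top concentration of the series differs between compounds; % is scaled to controls: 0 for no effect and ±100 for the full control effect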)
# How it was run: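 CHO cells expressing RORγ under a TET-on promoter, luciferase under RORE control. Dox 1 uM final, 16 h; compounds added 2 h prior. Luminescence decrease measured.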
# [5] = qHTS assay to identify small molecule antagonists of the peroxisome proliferator-activated receptor delta (PPARd) signaling pathway - cell viability counter screen (AID 743213); details: PPARd-bla HEK293H viability, CellTiter-Glo luminescence, 17 h; viability change, negative = cytotoxic: at 62 µM (top of the series) unless noted; also: potency is read from the fitted curve at half-maximal effect; nearly all actives have a fitted effect of over 50% in size
# How it was run: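 Cytotoxicity counter screen: CellTiter-Glo luminescence read 30 min after addition, in the same wells as the reporter assay. There, PPARd UAS-bla HEK293H cells (3000/well) were treated 17 h at 37 C with compound and 300 nM L165041.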
# [6] = biological target: Peroxisome proliferator-activated receptor delta (Homo sapiens) (UniProt Q03181); experiment: qHTS assay to identify small molecule antagonists of the peroxisome proliferator-activated receptor delta (PPARd) signaling pathway (AID 743215; active = well fitted inhibition curve with a large enough effect in the signal ratio in the repeat runs, not every such curve was filed as active; inconclusive = weak or mixed curves, or effect the other way; inactive = no such curve, though single readings can be large or run the other way; the % refers to the signal ratio;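 also: cells stimulated with agonist L165041 at 300 nM final during compound exposure; % is scaled to controls: 0 for no effect and ±100 for the full control effect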); details: HEK293H PPARd-UAS-bla, beta-lactamase FRET ratio, antagonist, 17 h; ratio activity, negative = inhibition: at 62 µM (top of the series) unless noted
# How it was run: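 Screen format: qHTS, antagonist mode. HEK293H PPARd-bla cells received compound and 300 nM L165041 (final), 17 h, 37 C. Beta-lactamase detected via FRET substrate fluorescence, 2 h, room temperature.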
# [7] = biological target: Vitamin D3 receptor (Homo sapiens) (UniProt P11473); experiment: qHTS assay to identify small molecule antagonists of the vitamin D receptor (VDR) signaling pathway (AID 743223; active = well fitted inhibition curve with a large enough effect in the signal ratio in the repeat runs, not every such curve was filed as active; inconclusive = weak or mixed curves, or effect the other way; inactive = no such curve, though single readings can be large or run the other way; the % refers to the signal ratio; also: potency is read from the fitted curve at half-maximal effect; as to activity change, negative = inhibition: % is scaled to controls: 0 for no effect and ±100 for the full control effect); details: VDR-UAS-bla HEK293T, beta-lactamase FRET ratio, 16 h; activity change, negative = inhibition: at 61 µM (top of the series) unless noted
# How it was run: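 Agonist 1alpha,25-dihydroxyvitamin D3 (3 nM in well) was added with each compound to VDR-bla cells preincubated 4 h. Cells stood 16 h at 37C, then FRET substrate 2 h at room temperature; fluorescence intensity recorded.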
# [8] = biological target: Bile acid receptor (Homo sapiens) (UniProt Q96RI1); experiment: qHTS assay to identify small molecule antagonists of the farnesoid-X-receptor (FXR) signaling pathway (AID 743217; active = well fitted inhibition curve with a large enough effect in the signal ratio in the repeat runs, not every such curve was filed as active; inconclusive = weak or mixed curves, or effect the other way; inactive = no such curve, though single readings can be large or run the other way; the % refers to the signal ratio; also: potency is read from the fitted curve at half-maximal effect); details: HEK293T FXR-UAS-bla, beta-lactamase ratio, CDCA-stimulated, 16 h; activity change, negative = inhibition: at 62.6 µM (top of the series) unless noted
# How it was run: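 Quantitative HTS, beta-lactamase reporter format: FXR-UAS-bla HEK 293T cells co-treated 16 h at 37 °C with compounds and 50 uM final chenodeoxycholic acid, then read by B/G FRET fluorescence.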
# [9] = qHTS assay to identify small molecule agonists of the vitamin D receptor (VDR) signaling pathway - cell viability counter screen (AID 743224); details: VDR-bla HEK293T viability, CellTiter-Glo luminescence, 16 h; activity change, negative = cytotoxicity: at 62.6 µM (top of the series); also: % is scaled to controls: 0 for no effect and ±100 for the full control effect; nearly all actives have a fitted effect of over 50% in size
# How it was run: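 Counter screen for cytotoxicity: VDR-bla cells at 2,000 cells/well, 16 h compound exposure, then CellTiter-Glo luminescence after the beta-lactamase measurement.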
# [10] = qHTS assay to identify small molecule antagonists of the vitamin D receptor (VDR) signaling pathway - cell viability counter screen (AID 743225); details: VDR-bla HEK293T viability, CellTiter-Glo luminescence, 16 h; viability change, negative = cytotoxic: at 61 µM (top of the series) unless noted; also: nearly all actives have a fitted effect of over 50% in size; also: potency is read from the fitted curve at half-maximal effect
# How it was run: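 Luminescent cell viability (CellTiter-Glo) in VDR-bla HEK 293T cells after 16 h compound exposure at 37C in the presence of 3 nM final 1-alpha,25-dihydroxy vitamin D3.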
# [11] = biological target: Vitamin D3 receptor (Homo sapiens) (UniProt P11473); experiment: qHTS assay to identify small molecule agonists of the vitamin D receptor (VDR) signaling pathway (AID 743222; calls by dose curve; also: potency is read from the fitted curve at half-maximal effect); details: HEK293T VDR-UAS-bla, beta-lactamase FRET ratio, 16 h; activation: at 63.5 µM (top of the series) unless noted
# How it was run: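 Using LiveBLAzer B/G FRET detection, agonism was scored in VDR-bla cells exposed overnight (16 h, 37C) to DMSO-dissolved compounds; substrate incubation was 2 h at room temperature.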
# Tags tell the direction and shape of the fitted curve or compound fluorescence and quenching.
# Sequence of UniProt P11473 (P11473 whole entry, looked up): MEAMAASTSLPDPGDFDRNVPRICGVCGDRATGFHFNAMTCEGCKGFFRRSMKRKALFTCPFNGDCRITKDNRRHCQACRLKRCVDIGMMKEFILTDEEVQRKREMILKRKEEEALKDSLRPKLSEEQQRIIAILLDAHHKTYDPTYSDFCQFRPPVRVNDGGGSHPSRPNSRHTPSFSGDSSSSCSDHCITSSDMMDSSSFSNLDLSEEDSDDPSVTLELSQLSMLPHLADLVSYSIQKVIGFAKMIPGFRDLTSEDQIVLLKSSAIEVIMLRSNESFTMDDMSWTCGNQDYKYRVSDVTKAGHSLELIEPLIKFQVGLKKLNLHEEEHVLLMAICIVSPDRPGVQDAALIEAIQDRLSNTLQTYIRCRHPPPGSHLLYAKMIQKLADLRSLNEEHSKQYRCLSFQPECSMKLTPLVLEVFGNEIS
# Sequence of UniProt Q96RI1 (Q96RI1 whole entry, looked up): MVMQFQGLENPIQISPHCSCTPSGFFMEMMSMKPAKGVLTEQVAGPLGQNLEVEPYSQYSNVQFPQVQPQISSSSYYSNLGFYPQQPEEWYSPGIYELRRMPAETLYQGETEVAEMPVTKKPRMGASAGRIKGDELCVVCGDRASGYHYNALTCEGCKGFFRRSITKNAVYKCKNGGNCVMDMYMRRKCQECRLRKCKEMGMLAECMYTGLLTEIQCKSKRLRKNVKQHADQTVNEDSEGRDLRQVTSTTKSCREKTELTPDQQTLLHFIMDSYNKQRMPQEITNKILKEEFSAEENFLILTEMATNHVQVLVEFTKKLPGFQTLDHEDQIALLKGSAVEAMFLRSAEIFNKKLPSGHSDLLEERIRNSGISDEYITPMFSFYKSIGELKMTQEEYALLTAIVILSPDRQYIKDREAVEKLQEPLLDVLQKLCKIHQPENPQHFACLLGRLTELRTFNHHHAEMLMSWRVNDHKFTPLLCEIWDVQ
# Sequence of UniProt Q03181 (Q03181 whole entry, looked up): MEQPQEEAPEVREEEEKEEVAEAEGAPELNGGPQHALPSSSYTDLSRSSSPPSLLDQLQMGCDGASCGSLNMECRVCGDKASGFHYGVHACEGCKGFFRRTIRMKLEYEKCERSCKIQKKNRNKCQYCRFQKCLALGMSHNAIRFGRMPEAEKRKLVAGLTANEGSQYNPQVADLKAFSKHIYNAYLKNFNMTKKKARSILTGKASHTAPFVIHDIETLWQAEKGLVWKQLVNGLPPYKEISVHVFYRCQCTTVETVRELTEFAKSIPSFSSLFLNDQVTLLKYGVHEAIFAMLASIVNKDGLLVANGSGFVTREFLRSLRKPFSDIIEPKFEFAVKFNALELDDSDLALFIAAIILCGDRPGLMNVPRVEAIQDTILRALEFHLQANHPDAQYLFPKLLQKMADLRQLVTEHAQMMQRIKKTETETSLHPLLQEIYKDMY
compound,measurement,setting,value
CC1=CCCC(C)(C)C12CCC(C)O2 (stereo unspecified),Potency,[1],"inconclusive [rising, single point]"
same,Potency,[2],"inconclusive [rising, partial curve, poor fit]"
same,Potency,[3],"inconclusive [rising, partial curve, poor fit]"
same,Potency,[4],"inconclusive [inhibitor, full curve, poor fit]"
C=CC(=O)OCC[N+](C)(C)C,Potency,[1],"inconclusive [rising, partial curve]"
same,Potency,[5],"inconclusive [rising, full curve, poor fit]"
same,Potency,[6],inactive
same,Potency,[7],inactive
same,Potency,[4],inactive
CC(C)(N)CO,activation,[1],inconclusive: -0.741%
same,Potency,[5],"inconclusive [cytotoxic, single point]"
same,"activity change, negative = inhibition",[8],inconclusive: 1.33%
same,Potency,[9],inactive
same,Potency,[10],"inconclusive [cytotoxic, full curve, poor fit]"
same,Potency,[4],inactive
CCCCCCCCOC(=O)CCCCCCCCC(=O)OCCCCCCCC,Potency,[1],"inconclusive [falling, partial curve, poor fit]"
same,Potency,[11],inactive
same,Potency,[4],inactive
CCC(=O)O[C@]1(C(=O)CCl)[C@@H](C)C[C@H]2[C@@H]3CCC4=CC(=O)C=C[C@]4(C)[C@@]3(F)[C@@H](O)C[C@@]21C,Potency,[1],"inconclusive [rising, single point]"
same,Potency,[2],inactive
same,"activity change, negative = inhibition",[7],inconclusive: 28.2%
same,Potency,[4],"inconclusive [inhibitor, single point]"
NS(=O)(=O)c1cc2c(cc1Cl)CN(C1CCCCC1)C2=O,Potency,[1],inactive
same,Potency,[8],inactive
same,Potency,[11],"inconclusive [fluorescent, full curve, poor fit]"
same,Potency,[4],inactive
NC(=O)COCCN1CCN(C(c2ccccc2)c2ccc(Cl)cc2)CC1 (stereo unspecified),Potency,[1],inactive
same,Potency,[5],"inconclusive [rising, full curve, poor fit]"
same,Potency,[4],active: 2.66 µM
CCCCCc1cccc(=O)o1,Potency,[1],inconclusive
same,Potency,[8],inactive
same,Potency,[7],"inconclusive [fluorescent, full curve, poor fit]"
same,Potency,[10],"inconclusive [cytotoxic, single point]"
same,Potency,[4],inactive
CC(=O)N(c1onc(C)c1C)S(=O)(=O)c1ccc(N)cc1,Potency,[1],inactive
same,Potency,[5],"inconclusive [cytotoxic, partial curve, poor fit]"
same,"activity change, negative = inhibition",[7],inconclusive: 6.15%
same,Potency,[4],"inconclusive [inhibitor, single point]"
Nc1ccn([C@@H]2O[C@H](CO)[C@@H](O)[C@@H]2O)c(=O)n1,Potency,[1],inactive
same,Potency,[8],"inconclusive [inhibitor, full curve]"
same,Potency,[4],active: 8.63 µM
Cc1ccc(-c2ccccc2C#N)cc1,Potency,[1],inactive
same,Potency,[5],"inconclusive [cytotoxic, single point]"
same,Potency,[4],inactive
Cc1ccc(Nc2nccc(N(C)c3ccc4c(C)n(C)nc4c3)n2)cc1S(N)(=O)=O,Potency,[1],inconclusive
same,Potency,[5],"inconclusive [cytotoxic, full curve, poor fit]"
same,Potency,[10],inactive
same,Potency,[4],"inconclusive [inhibitor, full curve]"
CCOC(OCC)OCC,Potency,[1],inactive
same,"ratio activity, negative = inhibition",[6],inconclusive: 2.08%
same,Potency,[4],inactive

# From PubChem BioAssay (Tox21)
